{
  "source": "PubChem BioAssay AID1362",
  "about": "(SRMLSC, 2008)",
  "note": "Some of the results follow. Shown are side measurements of this screen, not its main read-out; they come without a call. Most of these compounds were active or inconclusive in the main read-out, so they are no random draw.",
  "data": [
    {"test": "growth inhibition of WT strain, primary screen, mitochondrial fusion inhibitor project, WT and mutant strains, chemical genetic (AID 1362); note: tested in S. cerevisiae", "details": "mitochondrial fusion phenotypic screen, at 10 µM", "units": {"inhibition": "%"}, "values": [
      {"smiles": "CCC(C)c1ccc(NC(=S)NC(C)C2CCCO2)cc1", "note": "(stereo not given)", "inhibition": 48.5},
      {"smiles": "COc1ccc2ccc3c(c2c1)N=CC1(O3)N(C)c2ccccc2C1(C)C", "note": "(stereo not given)", "inhibition": 13.6},
      {"smiles": "CC(C)C1Nc2c(O)cc(Cl)c([N+](=O)[O-])c2C2C=CCC21", "note": "(stereo not given)", "inhibition": 43.4},
      {"smiles": "Cc1ccc(NC(=O)C2SC(=Nc3ccccc3)C(C(=O)Nc3ccc(Cl)cc3)=C2N)cc1", "note": "(stereo not given)", "inhibition": 9.64},
      {"smiles": "Cn1c(N/N=C/c2ccccc2)nc2sc3c(c2c1=O)CCC3", "inhibition": 60.5},
      {"smiles": "CCOC(=O)C1CCC(CN(Cc2ccccc2C)S(=O)(=O)c2ccc([N+](=O)[O-])cc2)CC1", "note": "(stereo not given)", "inhibition": 29.1},
      {"smiles": "Cc1onc(-c2ccccc2)c1C(=O)Nc1nnc(COc2ccc(Cl)cc2)s1", "inhibition": 39.3},
      {"smiles": "COc1cc(/C=N/N(C)c2ccccc2)cc(Cl)c1O", "inhibition": 44.8},
      {"smiles": "O=C(COC(=O)c1cc(Cl)ccc1[N+](=O)[O-])NCc1ccc(Cl)cc1Cl", "inhibition": 23.5},
      {"smiles": "Cc1cccc(NC(=S)N(C)Cc2cn(C)c3ccccc23)c1", "inhibition": 53.5},
      {"smiles": "CCCSc1cc(N2CCN(C)CC2)nc(-c2ccc(OC)cc2)n1", "inhibition": 91.7},
      {"smiles": "COc1cc2[nH]c(=O)n(CCC(=O)N3CCC(N4CCCCC4)CC3)c(=O)c2cc1OC", "inhibition": 34.3},
      {"smiles": "CCc1ccccc1NC(=S)N(Cc1ccco1)C(C)c1cccs1", "note": "(stereo not given)", "inhibition": 27.6},
      {"smiles": "O=C(Nc1ccccc1Sc1ccccc1)c1ccc(F)cc1", "inhibition": 23.3},
      {"smiles": "CS(=O)(=O)c1nc2ccccc2n1Cc1ccccc1", "inhibition": 2.28},
      {"smiles": "O=C(c1ccc(F)cc1)C(CN1CCOCC1)c1ccccc1", "note": "(stereo not given)", "inhibition": 70.1},
      {"smiles": "CCCCc1ccc(NC(=S)NCc2ccccc2OC)cc1", "inhibition": 25.6},
      {"smiles": "Cc1ccc(NC(=S)N(CCCN2CCCC2)Cc2cccn2Cc2ccc(Cl)cc2)cc1C", "inhibition": 25.6},
      {"smiles": "O=C(C1=C[C@H](c2csc3ccccc23)C[C@H](OCc2ccc(CO)cc2)O1)N1CCN(Cc2ccccc2)CC1", "inhibition": 37.7},
      {"smiles": "CC1=NN(C(N)=S)C(=O)C1N=Nc1ccccc1", "note": "(stereo not given)", "inhibition": 52.9},
      {"smiles": "O=C(Nc1ccccc1)C1=C[C@@H](c2ccc(C(F)(F)F)cc2)C[C@@H](OCc2ccc(CO)cc2)O1", "inhibition": 14.5},
      {"smiles": "O=C(c1cc2ccccc2o1)N1CCN(c2ccccc2Cl)CC1", "inhibition": 52.2},
      {"smiles": "N#C/C(=C\\c1ccccc1[N+](=O)[O-])C(=O)NC1CCCCC1", "inhibition": 34.1},
      {"smiles": "CC1CCC(C(C)C)C(OC(=O)COC(=O)c2cccn2C)C1", "note": "(stereo not given)", "inhibition": 24.9},
      {"smiles": "CCCCCCCCOC(=O)CCn1[nH]c(=O)c2ccccc2c1=O", "inhibition": 79.1},
      {"smiles": "S=C(c1ccc(-c2cccc(Cl)c2)o1)N1CCCCC1", "inhibition": 22.8},
      {"smiles": "NNC(=O)c1cccc(COc2ccc(Br)cc2)c1", "inhibition": 54},
      {"smiles": "Cc1cccc(N2C(=O)C(Oc3ccc(Cl)cc3Cl)C2C=O)c1C", "note": "(stereo not given)", "inhibition": 17.9},
      {"smiles": "CN1CCN(c2ccc(Cl)cc2NC(=O)/C=C/c2ccc(F)cc2)CC1", "inhibition": 59.5},
      {"smiles": "CCCCSc1nnc(CNC(=O)C23CC4CC(CC(C4)C2)C3)n1Cc1ccccc1", "inhibition": -2.99},
      {"smiles": "C/C=C(/C(=C/C)c1ccc(O)cc1)c1ccc(O)cc1", "inhibition": 10.7},
      {"smiles": "CCn1c(CN2CCN(c3ccc(Cl)cc3)CC2)nc2ccccc21", "inhibition": 35.6},
      {"smiles": "Cc1c(C(=O)N2CCC(C)CC2)sc2ncnc(N(C)c3ccccc3)c12", "inhibition": 72},
      {"smiles": "CCCCn1c(CN2CCN(c3cccc(Cl)c3)CC2)nc2c1c(=O)n(C)c(=O)n2C", "inhibition": 27.8},
      {"smiles": "CCCCc1ccc(-n2c(Cc3cccs3)n[nH]c2=S)cc1", "inhibition": 52.7},
      {"smiles": "O/N=C(\\c1ccc(Cl)cc1Cl)c1ncc(C(F)(F)F)cc1Cl", "inhibition": 15.9},
      {"smiles": "CC(C)(C)c1ccc(CNc2ccc([N+](=O)[O-])cn2)cc1", "inhibition": 19.2},
      {"smiles": "O=C1CSC(=NC2CCCCC2)N1", "inhibition": 46.9},
      {"smiles": "CCOC(=O)C(=O)NNc1ccc(C)cc1", "inhibition": 58.6},
      {"smiles": "FC(F)(F)c1ccc(N2CCN(c3cc(-c4ccccc4)nc4ncnn34)CC2)nc1", "inhibition": 42.9},
      {"smiles": "Cc1cccc(-c2ncc(CN3CCCC(CO)(Cc4ccccc4C)C3)cn2)c1", "note": "(stereo not given)", "inhibition": 46.3},
      {"smiles": "C(=N\\Nc1nc(Nc2ccccc2)nc(N2CCCCC2)n1)/c1ccco1", "inhibition": 14.7},
      {"smiles": "Cc1c(C(=O)Nc2ccccc2[N+](=O)[O-])csc1-c1ccccc1", "inhibition": 68.5},
      {"smiles": "c1ccc(CC2CCN(c3ncnc4sccc34)CC2)cc1", "inhibition": 17.6},
      {"smiles": "CC(=O)N1N=C(c2ccc(C)cc2)OC1c1ccc(Br)cc1", "note": "(stereo not given)", "inhibition": -0.36},
      {"smiles": "COc1ccc(CNC(=O)C2CC(=O)N(c3ccc(OCC(=O)N4C(C)CCCC4C)cc3)C2)cc1", "note": "(stereo not given)", "inhibition": -5.68},
      {"smiles": "Cc1cc(C)c(C)c(OCCCOc2cccc3cccnc23)c1", "inhibition": 75.2},
      {"smiles": "CC(C)(C)c1ccc(S(=O)(=O)N2CCC(c3nc4ccc(Cl)cc4[nH]3)CC2)cc1", "inhibition": 31.8},
      {"smiles": "Cc1nc2ccc(C(=O)NCc3ccc4c(c3)OCO4)cc2s1", "inhibition": 55.1},
      {"smiles": "O=[N+]([O-])c1cccnc1N1CCC(c2cc(-c3ccc(Cl)cc3Cl)n[nH]2)CC1", "inhibition": 14.5},
      {"smiles": "Cc1ccc(CCSc2ccc(C(C)C)cc2)cn1", "inhibition": 70.3},
      {"smiles": "CNC(=S)N/N=C/c1cccc(OCc2ccccc2F)c1", "inhibition": 9.92},
      {"smiles": "COc1cc(CNC(C)(C)CO)cc(Br)c1OCc1ccc(Cl)cc1Cl", "inhibition": 89.1},
      {"smiles": "S=C(NCCc1ccccc1)NCCc1ccccc1", "inhibition": 51.9},
      {"smiles": "CCCCc1ccc(NC(=S)NCc2ccc(OC)cc2)cc1", "inhibition": 50.5},
      {"smiles": "CCN(c1ccccc1)S(=O)(=O)c1cnc[nH]1", "inhibition": 2.52},
      {"smiles": "O=C(NCc1ccco1)C1CCN(C(=O)c2cc3sccc3n2Cc2ccc(Cl)cc2)CC1", "inhibition": 20.6},
      {"smiles": "CCCOc1ccc(-c2csc(N)n2)cc1[N+](=O)[O-]", "inhibition": 74.6},
      {"smiles": "CC1CN(C(=O)N(C)C)CCN1C(=O)N(C)C", "note": "(stereo not given)", "inhibition": 7.32},
      {"smiles": "COc1ccc(-c2nc3n(c(=O)c2C#N)CCCS3)cc1", "inhibition": -10.4},
      {"smiles": "CN(C)c1nn(C(=O)Nc2cccc(C(F)(F)F)c2)cc1-c1ccccc1", "inhibition": 29.2},
      {"smiles": "O=C1c2ccccc2NC(c2ccc(Cl)cc2Cl)N1Cc1ccccc1", "note": "(stereo not given)", "inhibition": 38.9},
      {"smiles": "CC1CCN(C(=S)c2cn(Cc3ccccc3F)c3ccccc23)CC1", "inhibition": 65},
      {"smiles": "Cc1ccc(S(=O)(=O)Nc2ccccc2C(=O)Nc2nc(-c3ccc(F)cc3)cs2)cc1", "inhibition": 64},
      {"smiles": "Cc1cccc(NC(=S)NCC(C)CSc2ccc(Cl)cc2)c1", "note": "(stereo not given)", "inhibition": 47.5},
      {"smiles": "O=S(=O)(NCCC(c1ccc(F)cc1)c1ccco1)c1ccccc1", "note": "(stereo not given)", "inhibition": 11.8},
      {"smiles": "CC1=NOC(=O)/C1=C/c1ccc(-c2ccc(Cl)cc2)o1", "inhibition": 72.9},
      {"smiles": "CCCCN(CCCC)C(=S)NC(=O)c1ccccc1Cl", "inhibition": 47.3},
      {"smiles": "CCCCC(CC)C(=O)Oc1ccc(O)c(C(C)(C)C)c1", "note": "(stereo not given)", "inhibition": 78.7},
      {"smiles": "Cc1ccc(CNC(=O)C(Cc2ccccc2)NS(=O)(=O)c2ccc(Br)s2)cc1", "note": "(stereo not given)", "inhibition": 43.6}
    ]}
  ]
}
